The source of these data is the supplement of paper PMC11417369.

± gives the standard deviation of the averaged measurements. The list shows a part of the results.

For this experiment, the system named is PfAP2-LT AP2 domain (GST-tagged). Briefly: gcPBM binding intensity (ln(normalized median fluorescence intensity)); higher = stronger DNA binding. The method in brief:
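An Agilent 4 × 180k array of primer-extended double-stranded 36-bp intergenic genomic probes, with negative controls, was incubated for 1 h with GST-tagged P. falciparum DNA-binding domains expressed in E. coli. Alexa488 anti-GST antibody detected bound protein, scanned at 488 nm. Binding intensity is the highest Masliner-normalised natural-log median intensity across replicate spots of either probe orientation.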
With “AGGTAAAATATACATTGTACATATAATTAATTTATT [XGTACX_site626]”, the “gcPBM binding intensity (ln)” value was determined as 8.77 ± 0.52. Under “TGGGTAATACATAATACACACATGTATATGTCGCAT [CACACA_site1125]” stands 9.24 ± 0.4; under “AGTATATATACACAAGGGGAATACATATACAAAATT [TGCATGCA_negctrl_site244]”, 9.04 ± 0.46; under “AAATTTATATAATATTGTACATTAAAAATTATATAT [XGTACX_site8009]”, 8.45 ± 0.51. For the sequence “TATGTATAAATATATGCACACATATATATATTTATA [CACACA_site9150]”, the “gcPBM binding intensity (ln)” value is 8.85 ± 0.38. Take “TTTTTAAAAAAGATAAGCGAAAGAATTAATTTTTAA [GTGCAC_negctrl_site197]”: the “gcPBM binding intensity (ln)” value was determined as 8.13 ± 0.52. With “TAAATTAATAAAAAGTGTACATAATATACATATATA [XGTACX_site8604]”, the “gcPBM binding intensity (ln)” value amounted to 8.79 ± 0.38. As for TACAATACCGTACAGGTGCAACTAGCCAAAAAAAAG, the “gcPBM binding intensity (ln)” value was 9.06 ± 0.47. Under “CGTATGACATAATATTGTACTTTTGATATACATCAT [XGTACX_site7366]” stands 8.81 ± 0.41; under “ATAATTAAAAAAGGAATATATATATATATATATATA [GTGCAC_negctrl_site343]”, 9.76 ± 0.32. Next, TTTAATAATATTTAGGTGCTATATATTATATGTATA: 8.62 ± 0.39; “AAACAAAAAAGAAACACACACTAATTAAATTTTCTT [CACACA_site4746]”: 9.1 ± 0.41; “CTCAATATATTTGATTTACACACTTACAATGTATAT [CACACA_site8982]”: 9.04 ± 0.33. Next, “AAGTGGCATATAAGTAAAAAATATATACAAGTATAT [GTGCAC_negctrl_site427]”: 8.81 ± 0.51. In the case of “TATTAAAGATACTCGGTATAAATAAATTTTAATGTG [XGTACX_negctrl_site239]”, the “gcPBM binding intensity (ln)” value was found to be 8.54 ± 0.52. Under “ACAACATGCACACGCACACACAAAAAAAGCATGCAT [CACACA_site6185]” stands 9.67 ± 0.3; under “ATGCTTATTATTTATTGTACTGAATAAATATATCTG [XGTACX_site4483]”, 8.86 ± 0.5. Under “TTATTTCTACCTTTTTGTACACATTATTATGAAACC [XGTACX_site5325]” stands 8.94 ± 0.51; under “TATAAAAAATATAATTGTACATAAAGGTTAAAATGT [XGTACX_site6138]”, 8.84 ± 0.38; under “ATAAATCATAAGGAGAGTACATAAATAAAATAATCA [XGTACX_site8825]”, 8.88 ± 0.5.

For the sequence “TATATATGGAAAAGGTGTACATTCAATATATATATA [XGTACX_site3167]”, the “gcPBM binding intensity (ln)” value stood at 8.86 ± 0.33. With “CTATAATATAGGTATACACACATATTATAGAATATT [CACACA_site7696]”, the “gcPBM binding intensity (ln)” value worked out at 8.98 ± 0.4.

Regarding “TATGTCAAAAAATAATGTACAAAAAAATTAACATAA [XGTACX_site5463]”, the “gcPBM binding intensity (ln)” value turned out to be 8.65 ± 0.45.

For the sequence “TGAGTATTTTTTTAATGTACTTATATTAAAAGGAAA [XGTACX_site6286]”, the “gcPBM binding intensity (ln)” value came out at 8.13 ± 0.38.

As to TATATTTTTTTTCTAGTGCATATTATTAATTAAGTT, the “gcPBM binding intensity (ln)” value amounted to 8.54 ± 0.47. On to “AAAATATTATTTTGTTGTACATATAAAATTTTAAGC [XGTACX_site1866]”, for which the “gcPBM binding intensity (ln)” value came out at 8.49 ± 0.57.

Turning to “TACAAAATAAGACATGCATGTTATACATATATATTT [TGCATGCA_site321]”, the “gcPBM binding intensity (ln)” value stood at 9.14 ± 0.41. Regarding “TTTATTTTGTAGTGTACACATATATATATATATATA [CACACA_site5843]”, the “gcPBM binding intensity (ln)” value stood at 9.53 ± 0.23.

Take “TATAATATATGTATATGTACTTATGTTGAGAAACAT [XGTACX_site2117]”: the “gcPBM binding intensity (ln)” value was 8.6 ± 0.38.

Turning to “GAATAATATATATGTTCACACATGGTCTTTATTATA [CACACA_site5457]”, the “gcPBM binding intensity (ln)” value stood at 8.89 ± 0.4. As to “TACCTAATATGTTATACACACATTATGAGTACATAT [CACACA_site2466]”, the “gcPBM binding intensity (ln)” value came to 9.13 ± 0.35. Take “GTTATATAAACATATGCATGTGAAGTGTTTATTAAT [TGCATGCA_site183]”: the “gcPBM binding intensity (ln)” value was 8.98 ± 0.43. “TAAGTTTTGTTTTTTTGTACTCATTCATACTATCAT [XGTACX_site3638]”: the “gcPBM binding intensity (ln)” value came to 8.86 ± 0.48.

In the case of “CTTATTTACTATTTTTCACACATTACAGATAAACAA [CACACA_site6095]”, the “gcPBM binding intensity (ln)” value stood at 8.6 ± 0.41. With “TAAATATATATATATAGTACAATATAATTATGATAT [XGTACX_site258]”, the “gcPBM binding intensity (ln)” value turned out to be 8.79 ± 0.38. For the sequence “TCATTGAAAAAAATCTGTACTGACTATATAGTTGCA [XGTACX_site1566]”, the “gcPBM binding intensity (ln)” value was found to be 8.54 ± 0.37. Under “TATATATATATAATTGCACACATCAAGTTTGATGTT [CACACA_site1288]” stands 9.38 ± 0.29.

Take “AAATGTACAGGACGCACACACATATTTATATTTATA [CACACA_site7689]”: the “gcPBM binding intensity (ln)” value came to 9.53 ± 0.3.

GTTGTATACAATAATGTGCACATATTAATTTGAACT: the “gcPBM binding intensity (ln)” value came out at 9.06 ± 0.35. For the sequence “TTTTTTTTTCCTTTTTTTTAAATATTAAAAATGGGA [TGCATGCA_negctrl_site494]”, the “gcPBM binding intensity (ln)” value is 8.03 ± 0.46. On to “TATATATATATAAGTAGTACAATAATATATTATTTT [XGTACX_site6450]”, for which the “gcPBM binding intensity (ln)” value stood at 8.74 ± 0.42.

On to “TTTTACATCATATATAGTACATATATTATACATATA [XGTACX_site8590]”, for which the “gcPBM binding intensity (ln)” value is 8.76 ± 0.43.

“TTTTCTTAATATTTCGTTTTACATAAACCTTTTAAA [CACACA_negctrl_site660]”: the “gcPBM binding intensity (ln)” value came out at 8.43 ± 0.52. As to “AATATAATATTATATAGTACATATTTCTTTTATTTT [XGTACX_site22]”, the “gcPBM binding intensity (ln)” value was found to be 8.6 ± 0.42. For “TCTTGATACAAACATTTAAATAAATAAATAAAAAAA [GTGCAC_negctrl_site41]”, the “gcPBM binding intensity (ln)” value worked out at 8.41 ± 0.49. With “TAATATTATATTTATAGTACATATAATATATATATA [XGTACX_site2964]”, the “gcPBM binding intensity (ln)” value worked out at 8.47 ± 0.47.

“TGTTGTGATATATTAAAATCGTCCCTTATAATTTTA [GTGCAC_negctrl_site595]”: the “gcPBM binding intensity (ln)” value was 8.59 ± 0.34. Consider “AAAATACACGCATACACACACACACCGACACATATA [CACACA_site4523]”, for which the “gcPBM binding intensity (ln)” value worked out at 10.4 ± 0.28.

Regarding “AAACACACACACAAATGTACATATATATATATATTT [XGTACX_site5090]”, the “gcPBM binding intensity (ln)” value was found to be 9.79 ± 0.26. As for “GAACACTAATAATGTTGTACACGTAATTATATATTT [XGTACX_site777]”, the “gcPBM binding intensity (ln)” value amounted to 8.96 ± 0.28. As to “ATATATTTTCATTTTACACACAAATAAAGATAATTT [CACACA_site2996]”, the “gcPBM binding intensity (ln)” value stood at 8.79 ± 0.43.

Consider “AAAATAAATAAAAAAAGTACATATATAATTTATAAA [XGTACX_site2411]”, for which the “gcPBM binding intensity (ln)” value amounted to 8.66 ± 0.46. As for “AATGTGCAAACAAACTGTACTTTTTTTTTTTTTTTT [XGTACX_site928]”, the “gcPBM binding intensity (ln)” value turned out to be 8.86 ± 0.26.

Consider “AGATTTATTCATTCATGTACTTATTTATTTTATTTT [XGTACX_site6702]”, for which the “gcPBM binding intensity (ln)” value was 8.91 ± 0.44. Under “ATAAAAATATTTATTACACACATAAGCAAAAAAAAA [CACACA_site3484]” stands 8.86 ± 0.43; under “TATAATGATGATGATAGTACGTATGAGTAAGAAAAA [XGTACX_site31]”, 8.99 ± 0.54; under “TATTTTTATTTTTAAACCATATATATATATATATAT [CACACA_negctrl_site1560]”, 9.44 ± 0.16.
